Assay results from PubChem BioAssay AID1508623 (National Center for Advancing Translational Sciences (NCATS), 2021).
The whole screen tested about 48,000 compounds, of which about 450 (0.94%) were called active. Inconclusive results (about 19%) are left out. Calls follow the shape of the dose curve; as a rule, active = well fitted inhibition curve with a large enough effect; inconclusive = small, poorly fitted or top-dose-only effect; inactive = no such curve, though single readings can be large or run the other way. Some of the results follow.

Experiment: Primary qHTS for Identification of Small Molecule Inhibitors of Huntingtin Promoter Activity; also: nearly all actives have a fitted effect of over 50% in size
Settings: HEK293 HTT promoter firefly luciferase reporter (activity 0% = vehicle and -100% = no light), 24 h; series mostly up to 57.5 µM; activity change, negative = inhibition: at the top concentration
In short: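 Quantitative HTS used concentration series of up to 57.5 uM final on HEK293 luciferase reporter cells, 24 h at 37 degrees C. Readout was Dual-Glo firefly luminescence.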

Activity change, negative = inhibition, inactive:
COc1cccc(N2CCN(Cc3nnc(-c4ccc5c(c4)OCO5)o3)CC2)c1 -4.65%
CC(C)(C)C1CCc2c(sc(NC(=O)c3ccncc3)c2C(=O)Nc2ccccc2Cl)C1 (stereo not drawn) 1.06%
Cc1c(C(=O)NCc2ccccc2Cl)sc2nc3n(c(=O)c12)CCC3 22.9%
COc1ccc(N(CC(=O)NCc2ccc(C)cc2)S(=O)(=O)c2c(C)[nH]c(=O)[nH]c2=O)cc1 -8.21%
Cc1cc(C)cc(N2CCn3c2nc2c3c(=O)n(CCc3ccccc3)c(=O)n2C)c1 2.86%
Cc1ccc(-c2nc3c4ccccc4n(Cc4cccc(Cl)c4)c(=O)n3n2)cc1 -18.6%
CCN1CCN(CCCNC(=O)Cn2nc(C)n3c(cc4cc(C)ccc43)c2=O)CC1 4.09%
O=C(/C=C/N1C[C@@H]2C[C@@H]1CN2c1ccccn1)c1ccccc1O -10.7%
CCc1ccc(S(=O)(=O)c2nnn3c2nc(N2CCCC(C)C2)c2cc(Cl)ccc23)cc1 (stereo not drawn) 0.473%
COc1ccc2nc(N3CCN(C(=O)c4ccco4)CC3)sc2c1 8.61%
COc1ccc(OC)c(CNC(=O)C2COc3ccccc3C2)c1 (stereo not drawn) -8.86%
CCOC(=O)Cc1ccc(NC(=O)N2CC(CC)Oc3ccccc32)cc1 (stereo not drawn) -8.99%
COc1cccc(Cn2cc(S(=O)(=O)c3ccc(C)cc3)c(=O)c3cc4c(cc32)OCO4)c1 0.0694%
Cc1ccc(NC(=O)CSc2[nH]c(=O)ncc2C)cc1 62.2%
Clc1ccc(CSc2nc3ncccc3[nH]2)cc1 59.2%
Cc1ccc(NC(=O)Cc2ccc(NC(=O)N3CCCCc4ccccc43)cc2)cc1 -28.6%
Cc1cc(Cl)ccc1NC(=O)CN1C(=O)C(=O)c2ccccc21 -10.5%
CSc1cccc(NC(=O)Cn2nnc(C(=O)NCCc3ccccc3)c2N)c1 -21.7%
CCN1CCN(C(c2ccccc2)c2c(O)cc(C)n(CCOC)c2=O)CC1 (stereo not drawn) 13%
CCCCC(=O)Nc1ccc(C(=O)OCc2cc(=O)n3nc(C4CC4)sc3n2)cc1 -18.7%
COC(=O)C1=C(c2ccccc2)c2ccccc2S(=O)(=O)N1CC(=O)Nc1ccccc1C(F)(F)F -13.5%
COc1ccc(S(=O)(=O)Cc2ccc(C(=O)NC3CCCCC3)o2)cc1 -34.8%
Cc1cccc(N2CCN(c3ccc(C(=O)O)cc3NC(=O)c3ccccc3F)CC2C)c1 (stereo not drawn) -26.3%
C=CCN1CCc2nc(N)sc2CC1 9.08%
Cn1c(=O)n(CCc2ccccc2)c(=O)c2c1nc1n2CCN1c1ccc(Cl)cc1 -1.95%
CC(C(=O)Nc1ccccc1C(F)(F)F)n1nc(-c2ccccc2)c2c(c1=O)CCCC2 (stereo not drawn) -29.4%
Cc1cc(C)c2c(-n3cccc3)c(C(=O)NCCc3ccccc3)sc2n1 1.31%
CC(C)CC(=O)Nc1c(C(=O)N2CCN(c3ccccc3F)CC2)oc2ccccc12 -27.4%
CC(=O)c1ccc(N2CCN(C(=O)Nc3cccc(F)c3)CC2)cc1 -12.9%
CC(C)Oc1ccc(CNC(=O)CCCn2c(=O)c3cccn3c3cccnc32)cc1 -15.4%
O=C(c1ccccc1)C(O)c1ccccc1 (stereo not drawn) -0.643%
O=C(NCc1ccc2c(c1)CCN2C(=O)c1ccncc1)c1ccc(Cl)cc1 -22%
Cc1ccc2c(=O)c(C(=O)c3ccccc3)cn(CC(=O)Nc3ccccc3)c2n1 -12.1%
Cc1c(Cl)cccc1NC(=O)CN1C(=O)CCn2nc(-c3cccn3C)cc21 -3.81%
COCCN(CCOC)C(=O)c1cc2c(=O)n3ccccc3nc2n1C -7.33%
CCOC(=O)C(Cc1c[nH]c2ccccc12)NC(=O)COc1ccc(Cl)cc1 (stereo not drawn) -17.4%
CCn1c(NCc2cccc(Cl)c2)nc2ccccc21 -12.7%
COc1cc(-c2nc3ccc(C)cn3c2Nc2ccc(Cl)cc2)ccc1O -6.73%
COc1cccc(C(=O)NC2=NC(c3ccc(N(C)C)cc3)CC(=O)N2)c1 (stereo not drawn) -0.0305%
O=C(NCCCN1CCCCC1)c1cc(Sc2ccc(Cl)cc2)nc2ccccc12 -24.7%
Cc1ccc(Cn2c(C(=O)O)c(CNCCc3ccco3)c3ccc(C)cc32)cc1 -13.3%
Cc1c[nH]c2ccccc12 2.05%
COc1ccc(-n2c(=O)c3ccc(C(=O)NCc4ccc(C)cc4)cc3n(CC(=O)Nc3ccc(C)cc3)c2=O)cc1 -25.7%
O=S(=O)(c1ccc(Br)cc1)c1nnn2c1nc(NCc1cccs1)c1sccc12 -6.45%
CC(=O)c1ccc(N2CCN(C3C(=O)c4ccccc4N3C(C)=O)CC2)cc1 (stereo not drawn) -8.55%
COc1ccc(-c2cc(C(=O)NCCc3ccccc3)c3cc(C(C)C)ccc3n2)cc1 13.4%
NC(=O)c1cccc2cn(-c3ccc([C@@H]4CCCNC4)cc3)nc12 11.6%
CCOc1cc(-c2nc(-c3ccc(-c4ccc(OC)cc4)nc3OC)no2)cc(OCC)c1OCC 2.77%
COCCCNC(=O)C1CCN(c2cc(C)nc3c(-c4ccc(OC)c(OC)c4)c(C)nn23)CC1 -10.8%
COc1ccc(Cl)cc1NC(=O)c1nn(C)c2c1CS(=O)(=O)c1ccccc1-2 -1.06%
COc1ccccc1NC(=O)CCn1c(=O)oc2cc(Cl)ccc21 -2.13%
COc1ccc(-n2cc(C(=O)NCc3cccc(OC)c3)c3ccccc3c2=O)cc1 3.03%
O=C(CSc1nc(=O)n(Cc2ccco2)c2c1CCC2)NCc1ccc(F)cc1 -0.579%
CC1=C(C(=O)Nc2ccccc2C)C(c2ccccn2)n2nc(SCc3ccccc3F)nc2N1 (stereo not drawn) -10.2%
Cc1nc2nc(NC(=O)c3ccc(Cl)cc3)[nH]n2c(=O)c1Cc1ccccc1 -1.11%
O=c1[nH]c(SCc2ccc(Br)cc2)nc2c1CCCC2 -22.8%
Cc1ccc(S(=O)(=O)c2nnn3c2nc(N2CCN(c4ccccc4F)CC2)c2ccccc23)cc1C 1.01%
CC(NC(=O)Cn1c(-c2cccs2)cc2cc(F)ccc21)c1ccccc1 (stereo not drawn) -25.4%
O=C(NC1CC(=O)N(c2ccc(Cl)cc2)C1)c1cccs1 (stereo not drawn) -11.4%
C[C@H]1O[C@@H](n2cc(F)c(=O)[nH]c2=O)[C@H](O)[C@H]1O -5.24%
O=C(Cn1c(=O)n(Cc2ccc3c(c2)OCO3)c(=O)c2ccc(C(=O)NC3CCCCC3)cc21)Nc1ccccc1F -17.8%
COc1ccc(-c2cc(C(=O)Oc3ccc(C)c(C)c3)c3ccccc3n2)cc1 8.42%
Cc1cccn2c(=O)c3cc(C(=O)NCc4ccccc4Cl)sc3nc12 -12.6%
CCC(C)NC(=O)c1c(-c2ccccc2)c(-c2ccccc2)nn(C)c1=O (stereo not drawn) -8.09%
Cc1ccc(C(=O)NC2(C(F)(F)F)C(=O)Nc3c2c(=O)[nH]c(=O)n3CCc2ccccc2)cc1 (stereo not drawn) -3.09%
CCOC(=O)c1cc(-c2ccccc2)n(CCCC(=O)Nc2ccc(C)cc2C)c1C -26.6%
Cc1c(C(=O)N2CCC(C(=O)Nc3ccc(F)cc3)CC2)sc2nc[nH]c(=O)c12 -9.02%
Cc1cccc(-n2c3nc(=O)n(C)c(=O)c-3cc3ccc(Cl)cc32)c1C -7.52%
Oc1cccc(Nc2ncnc3sc4c(c23)CCCC4)c1 -25.6%
CS(=O)(=O)N1CCc2cc(C(=O)NCc3ccccc3)ccc21 -5.7%
CC(C)(C)C(=O)N1CCN(c2nc3c(F)cccc3s2)CC1 7.42%
CCOc1ccc(-n2c(SCC(=O)N3CCCCC3)nc3c([nH]c4ccccc43)c2=O)cc1 -6.38%
COc1ccc(N2CCN(C(=O)c3nc(-c4ccc(Cl)cc4)n4c3CCCCC4)CC2)cc1 -12% [at 11.5 µM]
Cc1ccc(Cl)cc1N1CCN(CCNC(=O)Nc2ccc(Cl)cc2)CC1 -43.3%
O=C(C1CCN(S(=O)(=O)c2cccc3nonc23)CC1)N1CCN(c2ccccc2)CC1 -16.6%
COc1ccc(NC(=O)c2nnn(Cc3ccc(Br)cc3F)c2N)c(OC)c1 -11.8%
CCOc1ccc(CNC(=O)c2ccc(CS(=O)c3ccccc3)o2)cc1 (stereo not drawn) -8.07%
CS(=O)(=O)N1CCc2cc(C(=O)N3CCN(c4ccc(F)cc4)CC3)ccc21 -24.9%
Cc1ccc(N2CC(NC(=O)c3ccc4c(c3)OCO4)CC2=O)cc1 (stereo not drawn) -16.1%
Cc1ccccc1NC(=O)Cn1nc(-c2ccc(F)cc2)c2cnc3ccccc3c21 -1.68%
CC(=O)N1CCCc2ccc(NS(=O)(=O)c3ccc(F)cc3F)cc21 -17%
CCOc1ccc(-c2c(C)nn3c(C)c(C(=O)NCc4ccc(C)o4)cnc23)cc1OCC -10.4%
Cc1ccc2nc(NC(=O)c3cc(=O)c4cc(Cl)ccc4o3)sc2c1 -14.2%
CCc1ccccc1NC(=O)CSc1nnc(CC)c(CC)n1 -19.9%
CC(=O)N1CCc2c(sc3c2c(=O)n(-c2ccc(C)cc2)c(=O)n3CC(=O)Nc2ccccc2)C1 35.1%
COc1ccccc1NC(=O)c1c(NC(=O)c2ccccc2F)sc2c1CCC2 -15.1% [at 11.5 µM]
COC(=O)c1c(NC(=O)c2ccccc2C(=O)O)sc2c1CCCC2 2.21%
Cc1ccc(-c2cc(C(=O)NCc3ccccc3)c3c(-c4ccc(C)cc4)[nH]nc3n2)cc1 -15.1%
COc1ccc(N2CCN(C(=O)c3ccc4c(c3)CCN4S(C)(=O)=O)CC2)cc1 -9.91%
Cc1ccc(C)c(S(=O)(=O)c2nnn3c2nc(Nc2ccc(F)c(Cl)c2)c2sccc23)c1 5.02%
Cc1ccc2c(c1)N(C(=O)N1CCC(C(=O)NCc3ccco3)CC1)CC(C)O2 (stereo not drawn) -11.7%
Cc1ccc(S(=O)(=O)CCC(=O)N2CCN(c3nc4c(C)c(Cl)ccc4s3)CC2)cc1 -25%
Cc1cccc(C(=O)Nc2nc(-c3ccc(Br)cc3)ns2)c1 7.17%
CN=C(NC#N)NCCSCc1csc(N=C(N)N)n1 3.86%
CCOC(=O)C1CCN(C(=O)Cn2ncc3c([nH]c4ccc(C)cc43)c2=O)CC1 3.38%
CC(=O)N1CCC2(CC1)OC(=O)C(C)=C2C(=O)Nc1ccccc1C(F)(F)F -12.7%
CN(C)CCN1C(=O)c2ccccc2N(C)c2ccccc21 4.27%
CCCC(=O)OC[C@@H](OC(=O)CCC)[C@@H](OC(=O)CCC)[C@H](Cn1c2nc(=O)[nH]c(=O)c-2nc2cc(C)c(C)cc21)OC(=O)CCC -7.9%
